Experimental data taken from PubChem BioAssay AID686979 (National Center for Advancing Translational Sciences (NCATS), 2013).
Among all 420,000 compounds or so, about 50,000 (12%) were called active. This list was built around the results that the source calls inconclusive (neither active nor inactive); the mix of calls is not that of the screen. Calls follow the shape of the dose curve; as a rule, active = well fitted inhibition curve with a large enough effect; inconclusive = small, poorly fitted or top-dose-only effect; inactive = flat fitted curve, though single readings scatter. Potencies of inconclusive entries are left out as doubtful fits.

test: qHTS for Inhibitors of human tyrosyl-DNA phosphodiesterase 1 (TDP1): qHTS in cells in presence of CPT; details: chicken DT40 Tdp1-/-;hTDP1 cells + 20 nM CPT, ATP luminescence, 48 h; activity change, negative = growth inhibition: at 46.2 µM (top of the series); also: nearly all actives have a fitted effect of over 55% in size
How it was run: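 Cell growth measured by CellTiter-Glo luminescence after a minimum 48 h, 37 C compound exposure with 20 nM CPT in Tdp1-knockout DT40 cells stably expressing hTDP1, seeded 400/well; qHTS titration format.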
% is scaled to controls: 0 for no effect and ±100 for the full control effect; potency is read from the fitted curve at half-maximal effect; tags tell the direction and shape of the fitted curve.

SMILES	Potency	activity change, negative = growth inhibition
CCCCN(CCCC)S(=O)(=O)c1ccc(OC)c2ncccc12	inconclusive [inhibitor, single point]	–
CCOc1cc(C(=S)N2CCOCC2)ccc1OS(=O)(=O)c1ccc(NC(C)=O)cc1	active: 10.3 µM	–
CCc1cccc(NC(=O)CN2C(=O)CCc3cc(S(=O)(=O)N4CCOCC4)ccc32)c1	inconclusive [inhibitor, partial curve]	–
Cc1c(Oc2ccc(C(F)(F)F)cc2[N+](=O)[O-])ccc2c3c(c(=O)oc12)CCC3	inconclusive [inhibitor, partial curve]	–
O=C(CN1CC(c2ccccc2)CC1=O)N/N=C/c1cc(Br)ccc1O (stereo not drawn)	active: 8.2 µM	–
CN(C)S(=O)(=O)c1cccc(NC(=O)COc2ccc3ccccc3c2)c1	inconclusive [inhibitor, single point]	–
CC(=O)c1ccc(-c2c(C)cc3oc(=O)cc(-c4ccccc4)c3c2C)cc1	active: 18.4 µM	–
CCC(C(=O)N1CCN(c2cc(Cl)ccc2C)CC1)n1nc(C)n2c(cc3occc32)c1=O (stereo not drawn)	inconclusive [inhibitor, single point]	–
CCSc1nc2n(n1)C(c1ccc(CC)cc1)C(C(=O)Nc1ccccc1OC)=C(C)N2 (stereo not drawn)	active: 16.4 µM	–
O=C1C(Cc2ccccc2)C(c2ccccc2)N1c1ccccc1 (stereo not drawn)	inconclusive [inhibitor, single point]	–
Cc1c(Cl)cccc1-n1c(CCC(=O)O)ccc1-c1cccs1	inconclusive [inhibitor, single point]	–
COc1ccc(-c2csc(NC(C)c3nc4cc(Cl)c(N5CCCCC5)cc4n3CCOCCO)n2)cc1 (stereo not drawn)	active: 13 µM	–
CN1OC[C@@H]2CN(S(=O)(=O)c3cccc(C(F)(F)F)c3)[C@H](c3ccc(-c4cc5ccccc5o4)cc3)C[C@@H]21	–	inactive: -28.6%
CCN(CC)c1cc(C)nc2nc(-c3ccc(C)cc3)nn12	inconclusive [inhibitor, single point]	–
Fc1ccccc1-n1c(-c2ccc3ccccc3n2)n[nH]c1=S	inconclusive [inhibitor, single point]	–
Cc1ccc(OC(C)C(=O)Nc2ccc3c(c2)n(C)c(=O)n3C)c(C)c1 (stereo not drawn)	inconclusive [inhibitor, single point]	–
N/C(=N\S(=O)(=O)c1cc(C(F)(F)F)cc(C(F)(F)F)c1)c1cccs1	inconclusive [inhibitor, single point]	–
COc1cc(OC)cc(C(=O)Nc2ccccc2C(=O)NC2CC2)c1	inconclusive [inhibitor, single point]	–
CCCN1CCn2c3c(c4cc(Br)ccc42)CCCC31 (stereo not drawn)	inconclusive [inhibitor, single point]	–
COc1ccc(-n2nnnc2C(CCSC)N2CCN(C/C=C/c3ccccc3)CC2)cc1 (stereo not drawn)	inconclusive [inhibitor, single point]	–
Cc1ccc(C)c(S(=O)(=O)N(C(=O)c2ccncc2)c2ccc(OC(=O)c3ccncc3)cc2)c1	inconclusive [inhibitor, single point]	–
COC(=O)[C@]12CCCCC=C1N(Cc1ccccc1)C(=O)[C@H](CC(=O)NCCc1ccccc1OC)C2	inconclusive [inhibitor, single point]	–
CC1=C(C(=O)OC2CCCCC2)C(c2ccco2)n2ncnc2N1 (stereo not drawn)	inconclusive [inhibitor, single point]	–

SMILES	Potency	activity change, negative = growth inhibition
CCCCNC(=O)CO/N=C(\C)c1cc2ccccc2o1	inconclusive [inhibitor, single point]	–
COc1ccc(N2CCN(C(=O)c3cc4c(=O)n(Cc5ccccc5)ccc4nc3C)CC2)cc1	inconclusive [inhibitor, partial curve]	–
Cc1cccc(CN2C(=O)N/C(=C/c3cc(C)n(-c4ccccn4)c3C)C2=O)c1	inconclusive [inhibitor, single point]	–
CCN(C[C@H]1N[C@@](C)(C(=O)OC)[C@H]2C(=O)N(C)C(=O)[C@@H]12)S(=O)(=O)c1ccc(C(F)(F)F)cc1	inconclusive [inhibitor, partial curve, poor fit]	–
Cc1ccc(OCCNC(=O)c2cccc(S(=O)(=O)N3CCN(C)CC3)c2)cc1	–	inactive: 2.46%
Cc1cccc(CN2CCN(Cc3cccc(-n4cccn4)c3)CC2CCO)n1 (stereo not drawn)	–	inconclusive: -32.2% [inhibitor]
Cc1cc(S(=O)(=O)N2CCN(CC(=O)N(C)Cc3ccccc3)CC2)ccc1Br	inconclusive [inhibitor, single point]	–
COc1cccc(-c2cnc3c(NC=O)cc(-c4ccoc4)cn23)c1	active: 13 µM	–
O=C1CCCN1CCCNc1nc(NCc2ccccc2)nc2ccsc12	active: 18.4 µM	–
O=C(NC1CCCCC1)C(c1ccncc1)N(Cc1ccc2c(c1)OCO2)C(=O)C(F)(F)F (stereo not drawn)	inconclusive [inhibitor, partial curve]	–
CCCCCCn1nc(C(=O)Nc2nc3c(s2)CCCC3)c2ccccc2c1=O	active: 14.6 µM	–
N#C/C(=C(/O)c1cccc(F)c1)c1nc2ccccc2s1	active: 20.6 µM	–
CC(c1ccccc1)C1CC(=O)N(CC(=O)O)C1=O (stereo not drawn)	–	inactive: 2.75%
Cc1ccc2[nH]c3c(NCCCN4CCCC4=O)ncnc3c2c1	inconclusive [inhibitor, single point]	–
CC12CCC(c3c(C(=O)Nc4nccs4)nn(-c4ccccc4)c31)C2(C)C (stereo not drawn)	active: 16.4 µM	–
CCCCn1c(N)c(N(CC(C)C)C(=O)c2cccc(S(=O)(=O)N(CC)c3ccccc3)c2)c(=O)[nH]c1=O	–	inactive: -8.65%
CCOc1ccc(S(=O)(=O)Nc2cccc(C(=O)N3CC(C)OC(C)C3)c2)cc1 (stereo not drawn)	–	inactive: -23.3%
Cn1c(CC(=O)Nc2ccccc2Cl)nnc1SCC(=O)NC1=NCCS1	inconclusive [inhibitor, single point]	–
Cc1cc(C)cc(NC(=S)/C(=C(\[O-])c2ccc(Cl)s2)[n+]2cccc(C)c2)c1	active: 18.4 µM	–
COCc1c(Br)c(C)nc(OCC(=O)N/N=C/c2cc(C)n(-c3ccc([N+](=O)[O-])cc3)c2C)c1C#N	inconclusive [inhibitor, partial curve]	–
CNC(=S)N/N=C/c1c(C(=O)OC)cnn1-c1ccc(F)cc1F	inconclusive [inhibitor, single point]	–
CCOc1ccc(NC(=O)CN2CCc3cc4c(cc3C2)OCCCO4)cc1OCC	inconclusive [inhibitor, single point]	–
O=C(N/N=C/c1cccc([N+](=O)[O-])c1)c1cc2c(ccc3ccccc32)o1	–	inactive: -27.7%

SMILES	Potency	activity change, negative = growth inhibition
CCc1ccc(NC2=NCC(=O)N2c2ccc3c(c2)OCCO3)cc1	inconclusive [inhibitor, partial curve]	–
O=C(CN1C(=O)NC(Cc2ccccc2)C1=O)Nc1ccccc1OC(F)F (stereo not drawn)	–	inactive: -6.49%
CCC(=O)Nc1cc(OC)c(NC(=S)Nc2ccccc2CC)cc1OC	–	inactive: -27.7%
CC1CCCN(C(=O)COC(=O)c2ccc[nH]c2=O)C1 (stereo not drawn)	–	inactive: 4.5%
CC(=S)c1c(C)cc2cc(C)ccn12	inconclusive [inhibitor, single point]	–
Cc1ccc(C(C(=O)NC2CCCC2)N(C(=O)Cc2cccs2)c2cccc(C)c2C)o1 (stereo not drawn)	active: 20.6 µM	–
CCCCOc1ccc(CC(=O)N(C)O)cc1	inconclusive [inhibitor, single point]	–
Cc1nc2cc(-c3ccc(Cl)cc3)nn2c(C)c1CCC(=O)NCc1ccco1	inconclusive [inhibitor, partial curve]	–
CN(C)CCN(C(=O)C1CCCCC1)c1nc2cc3c(cc2s1)OCO3	inconclusive [inhibitor, full curve, poor fit]	–
Cc1cc(C)nc(Nc2ncc(O)n2-c2ccc(C)c(Cl)c2)n1	–	inactive: -8.65%
COc1ccccc1-c1nn2c(=O)cc(C)nc2s1	–	inactive: -27.5%
CCOC(=O)C1=C(C)NC(=O)NC1c1cn(-c2ccccc2)nc1-c1cccs1 (stereo not drawn)	inconclusive [inhibitor, single point]	–
Cc1nc2c(sc(=S)n2Cc2ccco2)c(=O)n1CC(=O)Nc1ccccc1Cl	inconclusive [inhibitor, single point]	–
CCCC1OC23CCCCC2C(C#N)(C(=N)O3)C1(C#N)C#N (stereo not drawn)	active: 7.31 µM	–
Cc1c(Cl)cccc1NC(=O)c1ccc2nc(C(C)C)oc2c1	inconclusive [inhibitor, single point]	–
CCCN1C(=O)C(O)(C2CC(=O)CC(C)(C)O2)c2ccccc21 (stereo not drawn)	active: 5.8 µM	–
COC(=O)c1ccc2c(=O)n(Cc3ccc(C(=O)NC4CCCC4)cc3)c(=S)[nH]c2c1	inconclusive [inhibitor, single point]	–
CCOC(=O)C1=C(COc2ccccc2)NC(=O)NC1c1ccc(Br)cc1 (stereo not drawn)	active: 18.4 µM	–
COc1ccccc1NC(=O)CSc1ccc2nnc(-c3ccc(C)cc3)n2n1	inconclusive [inhibitor, single point]	–
CC(C)[C@H](NS(=O)(=O)c1ccccc1)C(=O)OCC(=O)Nc1ccccc1Sc1ccccc1	inconclusive [inhibitor, single point]	–
CCc1ccccc1Nc1nn2c(=O)c3ccc(C(=O)Nc4ccc(OC)cc4)cc3nc2s1	active: 20.6 µM	–
C=C(C)Cn1c(CCCNC(=O)CC)nc2ccccc21	inconclusive [inhibitor, single point]	–
